Measured values reported in PubChem BioAssay AID1476 (National Center for Advancing Translational Sciences (NCATS), 2009).
Screen size: about 200,000 compounds; about 4,500 (2.2%) were called active. Inconclusive means that the source gave no clear call. Such entries were picked first, then a sample of the others. Calls come from the whole dose curve; as a rule, active = well fitted inhibition curve with a large enough effect; inconclusive = small, poorly fitted or top-dose-only effect, or effect the other way; inactive = flat fitted curve, though single readings scatter. Where the call is inconclusive, the potency comes from a doubtful curve fit.

target: Cruzipain (Trypanosoma cruzi) (UniProt P25779); assay: qHTS Assay for Promiscuous and Specific Inhibitors of Cruzain (without detergent); conditions: purified cruzain, Z-FR-AMC fluorescence, no detergent; note: nearly all actives have a fitted effect of over 40% in size;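 for max response, negative = inhibition: plate controls were enzyme without inhibitor for no effect and buffer without enzyme for full effect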
Sequence of UniProt P25779 (P25779 whole entry, looked up): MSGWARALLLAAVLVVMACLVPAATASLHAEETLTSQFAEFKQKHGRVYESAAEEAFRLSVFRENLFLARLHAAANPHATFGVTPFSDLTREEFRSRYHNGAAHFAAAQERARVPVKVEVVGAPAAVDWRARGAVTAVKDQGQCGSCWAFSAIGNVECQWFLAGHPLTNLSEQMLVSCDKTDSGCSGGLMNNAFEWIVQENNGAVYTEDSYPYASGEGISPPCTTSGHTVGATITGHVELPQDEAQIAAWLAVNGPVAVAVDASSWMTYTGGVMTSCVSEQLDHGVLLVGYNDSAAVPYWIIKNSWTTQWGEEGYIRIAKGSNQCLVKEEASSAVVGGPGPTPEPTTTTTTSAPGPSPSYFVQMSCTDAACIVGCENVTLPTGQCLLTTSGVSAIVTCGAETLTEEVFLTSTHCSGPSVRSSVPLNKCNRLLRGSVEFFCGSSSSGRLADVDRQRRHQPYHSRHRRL
Procedure, shortened: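 Detergent-free condition (0.00005% Triton X-100) in acetate buffer pH 5.5 with DTT. 1.5 nM enzyme and compound were pre-mixed 15 min, then 2 uM Z-FR-AMC substrate added; reaction progress from fluorescence change between first and third reads (60 s).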
Potency is the fitted concentration of half-maximal effect; tags give direction and shape of the fitted curve.

SMILES	Potency	max response, negative = inhibition
CC(C)(C)OC(=O)N1CCC(c2c(C(=O)N3CCC(c4ccccc4)C3)cnn2-c2cccc(Cl)c2)CC1 (centres undefined)	inconclusive: 7.94 µM [activator, full curve]	
Cc1cccnc1NCc1ccc(O)c2ncccc12	inconclusive: 15.8 µM [inhibitor, single point]	
CCc1ccc(NC(=O)c2sc(-n3nc(C)c(Cc4ccc(OC)cc4)c3C)nc2C)cc1		inactive: -6.32%
Cc1cccc(/C=C2\CS/C(=C\c3cccc(C)c3)C2=O)c1	active: 25.1 µM	
Cc1ccc2nc(N3C(=O)C(O)=C(C(=O)c4ccco4)C3c3cccs3)sc2c1 (centres undefined)	inconclusive: 39.8 µM [activator, single point]	
CCOc1ccccc1C1C(C(=O)N2CCCCC2)=C(C)Nc2nc3ccccc3n21 (centres undefined)		inactive: 8.5%
COc1ccc(-c2noc(COc3ccc4c(c3)OCO4)n2)cc1OC	inconclusive: 31.6 µM [activator, single point]	
COC(=O)c1c(-c2cccs2)csc1NC(=O)COc1ccc(C(C)(C)C)cc1	active: 25.1 µM	
COc1ccc(NC(=O)c2ccc(-c3ccccc3)cc2)cc1NS(=O)(=O)c1ccc(F)cc1	inconclusive: 31.6 µM [inhibitor, single point]	
Cc1cc(NC(=O)CN2CCOCC2)n(-c2nc3ccccc3s2)n1	inconclusive: 39.8 µM [activator, single point]	
CCOC(=O)c1c(NC(=O)Nc2cccc(Cl)c2)sc(C)c1C	active: 25.1 µM	
CC1CC/C(=C\c2ccc3c(c2)OCO3)C(=O)/C1=C/c1ccc2c(c1)OCO2 (centres undefined)	inconclusive: 12.6 µM [inhibitor, partial curve, poor fit]	
Cc1ccc(CSc2nnc(-c3ccc(NS(=O)(=O)c4ccccc4)cc3)o2)cc1	inconclusive: 31.6 µM [inhibitor, single point]	
Cc1cc(C)nc(-n2nc(C)cc2NC(=O)c2cccc(S(=O)(=O)N3CCOCC3)c2)n1	inconclusive: 12.6 µM [activator, partial curve]	
COc1cc(NC(=O)C2=C(N3CCOCC3)/C(=C\c3ccc(Br)cc3)CC2)cc(OC)c1OC	inconclusive: 25.1 µM [activator, partial curve]	
C=CCN1C(=O)/C(=C/c2ccc(OCC(=O)O)cc2)S/C1=N/c1nccs1	inconclusive: 25.1 µM [activator, single point]	
CS(=O)(=O)N(CC(=O)N1CCN(c2ccccc2)CC1)c1cccc(Br)c1		inactive: 23.5%
CCOC(=O)c1cccc(NC(=O)[C@@H](c2ccccc2)N2Cc3ccccc3C2=O)c1		inactive: 2.96%
Cc1c(-c2nsc(NC(=O)c3ccccc3)n2)nnn1-c1ccc(C(F)(F)F)c(Cl)c1	active: 20 µM	
O=C1c2oc3ccccc3c(=O)c2C(c2ccccc2)N1Cc1ccc2c(c1)OCO2 (centres undefined)		inactive: 2.86%
O=c1cnc2cnc(N3CCOCC3)nc2n1C[C@H]1CCCO1		inactive: -6.76%
Cc1csc2nc(-c3cccc(NC(=O)C(C)C)c3)cn12		inactive: -12.6%

SMILES	Potency	max response, negative = inhibition
CCc1ccccc1NC(=O)c1ccc2c(c1)N(Cc1cccc(Cl)c1)C(=O)c1ccccc1S2(=O)=O	active: 15.8 µM	
Cc1nc(SCC(=O)OCc2ccccc2)c(C#N)c(-c2ccccc2)c1C(=O)Nc1ccccc1	inconclusive: 39.8 µM [inhibitor, single point]	
Cc1cccc(CCNC(=O)c2sc3nc4n(c(=O)c3c2C)CCCC4)c1		inactive: -11.1%
COc1ccc(C2CC(=O)Nc3c2c(C)nn3-c2nncc(-c3ccc(C)cc3)n2)c(OC)c1OC (centres undefined)		inactive: -14%
Cc1nn(Cc2ccccc2)c(C)c1C(=O)OCC(=O)NC1CCS(=O)(=O)C1 (centres undefined)		inconclusive: 34% [activator]
Cc1nc2cccnc2n1-c1cccc(C(=O)N2CCN(c3ccc(Cl)cc3)CC2)c1	inconclusive: 39.8 µM [activator, single point]	
COc1ccc(CCC(=O)N2CCc3c([nH]c4ccccc34)C2c2ccc(F)cc2)cc1 (centres undefined)	inconclusive: 39.8 µM [inhibitor, single point]	
NCCC[C@@H](N)C(=O)O		inactive: 19.4%
CCCCNC(=O)c1ccc(N2CCOCC2)c(NS(=O)(=O)c2ccc(OC)cc2)c1	inconclusive: 25.1 µM [activator, partial curve]	
c1ccc2c(c1)OCCOCCOCCOCCOCCOc1ccccc1OCCOCCOCCO2	inconclusive: 31.6 µM [activator, single point]	
Cc1ccc(S(=O)(=O)Nc2ccc(-c3nc4cc(NS(=O)(=O)c5ccc(C)cc5)ccc4o3)cc2)cc1	active: 7.94 µM	
CCOc1ccccc1NC(=O)c1ccc(Cl)c(NC(=O)CC(c2ccccc2)c2ccccc2)c1	inconclusive: 39.8 µM [inhibitor, single point]	
N#CCc1ccccc1[N+](=O)[O-]		inactive: -1.88%
c1ccc2c(CSc3nnc(-c4ccncc4)o3)cccc2c1		inactive: 20.3%
CN1C(C(=O)c2ccccc2)=C(OC(=O)c2ccc(Br)cc2)c2ccccc2S1(=O)=O	inconclusive: 39.8 µM [inhibitor, single point]	
Cc1oc2c(c(C)cc3oc(=O)c(CC(=O)NCCc4ccccc4)c(C)c32)c1C		inactive: 2.22%
COc1cc(/C=C/C(=O)c2cccs2)cc(OC)c1OC	inconclusive: 39.8 µM [activator, single point]	
CCOc1ccc(-c2nnc(Nc3ccc(S(N)(=O)=O)cc3)c3ccccc23)cc1		inactive: -12.4%
CCCn1c(SCC(=O)Nc2nnc(-c3ccccc3)s2)nnc1-c1ccccn1	inconclusive: 31.6 µM [activator, single point]	
COc1cccc(C(=O)Nc2ccc(N3CCCC3)cc2)c1		inactive: -20.3%
CCN(CC)S(=O)(=O)c1ccc(NC(=O)CSc2nnc(-c3cccc(OC)c3)n2C)cc1	inconclusive: 39.8 µM [activator, single point]	
Cc1cccc(NC(=O)c2c(C)oc3ncn(CC(C)C)c(=O)c23)n1		inactive: -0.0166%
